Measurements: PMC6919601, “Identification of Plasmodium dipeptidyl aminopeptidase allosteric inhibitors by high throughput screening” (PLoS ONE, 2019)
The campaign covered roughly 110,000 compounds. About 230 (0.21%) showed an effect of 50% or more. The list shows a part of the results.

molecular target: DPAP1 (Plasmodium falciparum, UniProt Q8IIJ9); assay: primary screen, percent inhibition; read by cleavage of a fluorogenic dipeptide substrate; higher = more effect of the substance; set-up: species or system P. falciparum D10 trophozoite lysates; single well
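Further: 30 min substrate incubation versus DMSO and 10 µM JCP410 controls.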

Chain of DPAP1 (Q8IIJ9 whole entry, looked up): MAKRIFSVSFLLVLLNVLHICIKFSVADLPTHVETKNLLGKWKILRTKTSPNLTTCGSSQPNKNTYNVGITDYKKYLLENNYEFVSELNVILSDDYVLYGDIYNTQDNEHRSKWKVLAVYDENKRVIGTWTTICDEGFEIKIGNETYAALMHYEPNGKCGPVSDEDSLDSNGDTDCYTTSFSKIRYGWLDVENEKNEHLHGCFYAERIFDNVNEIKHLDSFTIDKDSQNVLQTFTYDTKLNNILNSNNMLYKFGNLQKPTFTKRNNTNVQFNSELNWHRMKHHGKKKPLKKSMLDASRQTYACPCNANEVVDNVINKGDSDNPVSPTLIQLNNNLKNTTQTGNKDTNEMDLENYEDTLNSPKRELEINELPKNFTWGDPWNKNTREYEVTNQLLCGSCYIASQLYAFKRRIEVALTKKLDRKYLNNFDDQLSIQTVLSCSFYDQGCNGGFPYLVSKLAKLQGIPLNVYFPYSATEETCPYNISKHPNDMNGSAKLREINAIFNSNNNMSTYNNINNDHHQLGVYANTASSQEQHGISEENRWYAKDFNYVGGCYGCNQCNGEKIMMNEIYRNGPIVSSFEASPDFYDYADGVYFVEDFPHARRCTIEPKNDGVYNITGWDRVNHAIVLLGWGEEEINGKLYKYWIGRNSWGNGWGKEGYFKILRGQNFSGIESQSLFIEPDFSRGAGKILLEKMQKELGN

SMILES	% Inhibition @ 10 uM [%]
COc1cc(OC)cc(C(=O)c2ccc(C(=O)Nc3ccc4ncccc4c3)cc2)c1	0.475
CCCCNC(=O)c1nnn(-c2ccccc2)c1N	-1.68
CCN1C(=O)c2cccc3c(NS(=O)(=O)c4ccc([N+](=O)[O-])cc4)ccc1c23	-3.98
CN1C(=O)c2ccccc2C(C(=O)NCc2ccc3c(c2)OCO3)C1c1cccs1 (stereo not shown)	-3.31
COc1ccccc1OCCCCN1CCOCC1	1.35
COc1ccc(C(=O)Nc2ccccc2F)cc1OC	-3.26
Nc1nc(-c2cccnc2)nn1C(=O)COc1ccccc1	3.93
CC(=O)N1c2ccccc2N=C2CC(C)(C)CC(O)=C2C1CC1CC=C(C)C1(C)C (stereo not shown)	4.67
O=C(CN(c1ccc(Br)cc1)S(=O)(=O)c1ccccc1)NC1CC2CCC1C2 (stereo not shown)	-2.8
S=C(c1ccc(-c2cc(Cl)ccc2Cl)o1)N1CCOCC1	-5.51
CN(C)CN1C(=O)C(=O)c2ccccc21	-4.61
O=C(c1ccc(CS(=O)Cc2ccc(Cl)cc2)o1)N1CCN(c2ccccn2)CC1 (stereo not shown)	-2.44
O=C1CC(c2ccccc2)CC(=O)C1=CNCCN1CCOCC1 (stereo not shown)	3.25
Cc1cc(C)c2c(c1)C1(C(=O)N2)C(C#N)=C(N)Oc2c1c(C)nn2-c1ccccc1 (stereo not shown)	-5.34
Cc1cc(Cl)ccc1Nc1ncccc1C(N)=O	-3.56
Cc1nc2nc(NC(=O)C(c3ccccc3)c3ccccc3)nn2c(C)c1Cl	2.05
COc1ccc2nc3c(O)n(CCC(=O)O)c(SCC(N)=O)nc-3c2c1	9.02
CCOC(=O)C1C(C)=CC(=O)OC1C (stereo not shown)	-7.11
CCCN1CCN(C(=O)c2noc3c2COc2ccc(C)cc2-3)CC1	-0.74
COc1ccc(N2C(=O)NC(=O)/C(=C/c3cc4c(cc3Cl)OCO4)C2=O)cc1	7.48
Cc1oc2ccc(O)c(CN3CCCCC3C)c2c1C(=O)NCc1ccccc1 (stereo not shown)	-1.22
COc1cc(C2CC(=O)NC3=C2C(=O)CC(c2ccc(F)cc2)C3)ccc1O (stereo not shown)	-2.24
COc1cc(C2NCCc3c2[nH]c2ccccc32)ccc1O (stereo not shown)	-11.1
Cn1nnc2c(NC3CCOC(C)(C)C3)nc(Cc3ccc(Cl)cc3Cl)nc21 (stereo not shown)	3.51
N#CC1=C2SCC(O)(c3ccccc3)N2C(=O)CC1c1ccccc1Cl (stereo not shown)	2.34

SMILES	% Inhibition @ 10 uM [%]
O=c1/c(=C/c2cccs2)sc2ncnn12	-3.33
Cc1ccc(-c2c(CN3CCC(N4CCCCC4)CC3)csc2C)cc1	9.5
CC(C)(C)c1ccc(C(=O)N[C@H](C(=O)NCC#N)[C@@H]2CCc3ccccc32)cc1	1.71
CCOc1cc(C2C(C#N)=C(N)Oc3[nH]nc(-c4ccccc4Cl)c32)ccc1O (stereo not shown)	-2.45
COc1ccc(CNc2sc(S(C)(=O)=O)nc2S(=O)(=O)c2ccc(C)cc2)cc1	-0.522
Cc1cc(C)n(-c2nnc(C)n2/N=C/c2cc(Cl)ccc2F)n1	5.89
C=CC#CC1(O)CC(C)N(C)CC1C (stereo not shown)	-3.5
CCOC(=O)C1CCCCN1Cc1ccoc1 (stereo not shown)	-0.969
CSc1ccccc1-c1ccc(C(=O)N[C@@H](CC(C)C)C(=O)NCC#N)cc1	-3.48
CCOC(=O)c1c(NC(=O)c2ccc(OCc3cccc(F)c3)c(OC)c2)sc(C)c1C	0.4
O=C1c2ccccc2C(=O)C1(c1ccccc1)N1CCN(Cc2ccccc2)CC1	-1.55
COc1cc(C(c2sc3nc(C)nn3c2O)N2CCc3ccccc3C2)cc(OC)c1OC (stereo not shown)	-6.62
C=CCOc1c(CNc2ccc(C(=O)O)cc2)cccc1OC	-3.25
COc1ccc(C(=O)O)cc1COc1ccc(Cl)c(C)c1	-5.13
N#CC1=C(SCC(=O)Nc2ccc(Br)cc2)NC(=O)CC1c1cccc(O)c1 (stereo not shown)	-1.64
CCc1ccc(/C=C2\C(=N)N3N=C(S(C)(=O)=O)SC3=NC2=O)cc1	-3.35
CCOCCCNC(=O)c1cc2c(Cl)nc3ccccc3c2s1	4.15
CCCCN(C)CCCNC(=O)Cn1cccc1C(=O)c1ccccc1	-4.04
COc1cccc(C(=O)NC(Cc2ccccc2)c2ccc3c(c2)OCCCO3)c1 (stereo not shown)	0.475
CC(=O)N1CCC2(CC1)OC(=O)C(C)=C2C(=O)NCCCN1CCCCC1C (stereo not shown)	-3.25
COc1cc(C2C(C#N)=C(N)Oc3[nH]nc(-c4ccccc4)c32)cc(OC)c1OC (stereo not shown)	-0.366
COC(=O)C1=CN(C)C=C(C(=O)OC)C1c1ccc(OCc2ccccc2)c(OC)c1	-1.48
O=C(NCCc1ccc(Cl)cc1)C(=O)c1c[nH]c2ccccc12	2.7
c1ccc(CCc2nn3c(C4COc5ccccc5O4)nnc3s2)cc1 (stereo not shown)	1.25
CCOc1ccc(C2C(C(=O)O)c3ccccc3C(=O)N2CCN2CCOCC2)cc1 (stereo not shown)	2.73

SMILES	% Inhibition @ 10 uM [%]
O=C(O)Cn1ccnc1C(O)c1ccccc1 (stereo not shown)	-2.59
Cc1ccc(-c2nnc(SCC(=O)N3CCCCC3C)o2)cc1C (stereo not shown)	2.97
Cc1[nH]c2ccc(C(=O)NCCc3ccc(Cl)cc3)cc2c1C	-1.01
OC(C#CCN1CCOCC1)(c1ccccc1)c1ccccc1	-1.76
O=C(CSc1nc2nncc-2c(O)n1-c1ccccc1Cl)N1CCCC1	-0.406
O=C(C(c1ccccc1)c1ccccc1)N1CCCCCC1	2.23
CCCOc1ccc(CNC(=O)Cn2nc(CC)n3c(cc4sc(C)cc43)c2=O)cc1	-1.7
Cn1ncc2c(NCCC(c3ccccc3)c3ccccc3)ncnc21	2.4
CS(=O)(=O)N1CCN(c2ccc(NC(=O)c3sc4ccccc4c3Cl)cc2)CC1	-3.16
COc1ccc(CCNC(=O)C2CCN(S(=O)(=O)c3ccc(Br)cc3)CC2)cc1	-1.92
COc1ccc(Br)cc1CN1CCN(c2ccccc2)CC1	1.55
Cc1c(NC(=O)Nc2ccc(Cl)cn2)sc2nc3n(c(=O)c12)CCC(C)CC3 (stereo not shown)	6.35
CCSc1ccsc1C1C(C#N)=C(N)N(c2cccnc2)C2=C1C(=O)CC(C)(C)C2 (stereo not shown)	2.17
COc1cccc(CN2CCc3cc(OC)c(OC)cc3C2)c1	1.27
CC(C)(C)c1cc(-c2ccc(Cl)cc2)n(-c2cccc3cccnc23)n1	5.48
[O-][n+]1cc(-c2ccc(Cl)cc2)[n+]([O-])c2c1CCCC2	1.84
Cc1ccc(OCC(=O)Nc2ccc(C(=O)O)cc2)cc1C	-3.16
CCOCCc1nnc(NC(=O)c2cccc(OCC)c2)s1	-2.13
CCn1c(Oc2cccc3cccnc23)nc2c1c(=O)n(C)c(=O)n2C	-3.75
Brc1ccc2c(c1)C1CC(c3ccccc3)=NN1C(c1cccnc1)O2 (stereo not shown)	5.5
CC(CCc1ccccc1)NCCCN(C)C (stereo not shown)	-1.21
S=C1NCN(CCc2ccccc2)CN1C1CCCCC1	-1.92
CC(=O)Nc1cc2c(cc1NC(C)=O)n(C)c(=O)n2C	-2.22
Cc1cccc(-c2noc(CN(C(=O)/C=C/c3ccccc3Cl)C(C)C)n2)c1	-3.68
CN1CCN(C(=O)COc2ccccc2C#N)CC1	-1.7

SMILES	% Inhibition @ 10 uM [%]
Cc1onc(-c2ccccc2Cl)c1C(=O)N(Cc1nc(-c2ccccc2)no1)C(C)C	-3.37
CCN(CC)S(=O)(=O)c1cccc(S(=O)(=O)c2ccc(Cl)c(Cl)c2)c1	3.25
CCNc1ncnc2onc(C)c12	3.93
CN(C)c1ccc(CN2CCN(c3ccc(F)cc3)CC2)cc1	-1.77
COc1cc(C2C(C#N)=C(N)OC3=C2C(=O)CC(C)(C)C3)ccc1OCc1cccc(Cl)c1 (stereo not shown)	0.169
Cc1cc2c(n1-c1ccc(C(=O)NCCCN3CCC(N4CCCCC4)CC3)cc1)CCCC2	1.21
COc1ccc(CNC(=O)c2ccccc2C(=O)O)cc1	1.94
COCCNC(=O)CSCc1nc(-c2ccc(Cl)cc2)oc1C	3.99
CC1(C)Cc2c(sc(NC(=O)c3ccccc3)c2C#N)CO1	-2.54
COc1ccc(N(C(=O)c2ccccc2F)c2ccccc2)cc1	0.0345
O=C1CN(Cc2ccccc2)CC(=O)N1	-5.47
CSc1ncc2c(O)nccc2n1	-8.63
CC(C)C1C(c2ccccc2)NC(c2ccccc2)CC1(O)C#Cc1ccccc1 (stereo not shown)	3.65
COC(=O)c1cc(S(=O)(=O)NCc2ccc(OC)cc2)c[nH]1	-0.255
CO/C(O)=C1/C(C)=NC(=S)NC1/C=C/c1ccccc1 (stereo not shown)	0.219
Cc1[nH]nc(Nc2cccc(C(=O)O)c2)c1[N+](=O)[O-]	-0.254
COc1ccccc1C(=O)N/C(=C\c1cn(S(=O)(=O)N(C)C)c2ccccc12)C(=O)N1CCCC1	-1.96
O=C1N(CN2CCOCC2)c2ccccc2C12OCCCO2	2.69
CCN(CC)S(=O)(=O)c1ccc(NC(=O)c2ccc(OC)c(Br)c2)cc1	-0.95
CC1CC(=O)C2CCCCC2S1(=O)=O (stereo not shown)	2.38
O=C(CN(Cc1ccc(Cl)cc1)S(=O)(=O)c1ccccc1)Nc1ccc(F)cc1	8.87
NC(=O)/C(=C/c1ccccc1)NC(=O)c1ccco1	-3.83
CS(=O)(=O)N(CC(=O)O)c1ccc(C23CC4CC(CC(C4)C2)C3)cc1	8.19
CC(=O)N(C)c1ccc(NC(=O)c2cccc(Br)c2)cc1	-3.71
C=CCN(C(C)C(=O)O)S(=O)(=O)c1ccc(C)cc1 (stereo not shown)	-1.91
